# Laboratory results reported in the supplement of paper PMC12217912.
# The other results are listed elsewhere or left out. The full chains were built here from the parent and the listed change. Values near 0.05 are background.
# B1: TEV protease; numbered along this chain (parent)
# chain: MGESLFKGPRDYNPISSSICHLTNESDGHTTSLYGIGFGPFIITNKHLFRRNNGTLVVQSLHGVFKVKDTTTLQQHLVDGRDMIIIRMPKDFPPFPQKLKFREPQREERICLVTTNFQTKSMSSMVSDTSCTFPSGDGIFWKHWIQTKDGQCGSPLVSTRDGFIVGIHSASNFTNTNNYFTSVPKNFMELLTNQEAQQWVSGWRLNADSVLWGGHKVFMVKPEEPFQPVKEATQL
# Variants of: B1
# Assay: raw area under fraction-flipped curve 0-4 h after induction (AUC4h, not background-subtracted), DNA-recorder readout of cleavage of the substrate (dimensionless); higher = more cleavage of the substrate by the protease variant
# Conditions: temperature: 34 °C; time window: 0-4 h after rhamnose induction
# 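Further: Bxb1 expression induced with 0.2% (w/v) L-rhamnose at OD600 near 0.5, cultures sampled hourly, flipped fraction per protease–substrate barcode pair counted by paired-end Illumina sequencing.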
Variant,area with substrate ENAYFQS,area with substrate ENCYFQS,area with substrate ENDYFQS,area with substrate ENEYFQS,area with substrate ENFYFQS,area with substrate ENGYFQS,area with substrate ENHYFQS,area with substrate ENIYFQS,area with substrate ENMYFQS,area with substrate ENPYFQS,area with substrate ENQYFQS,area with substrate ENRYFQS,area with substrate ENVYFQS,area with substrate ENWYFQS,area with substrate ENYYFQS,area with substrate ENKYFQS,area with substrate ENNYFQS,area with substrate ENSYFQS,area with substrate ENTYFQS
MGESLFKGPRDYNPISSSICHLTNESDGHTTSLYGIGFGPFIITNKHLFRRNNGTLVVQSLHGVFKVKDTTTLQQHLVDGRDMIIIRMPKDFPPFPQKLKFREPQREERICLVTTNFQTKSMSSMVSDTSCTFPSGDGIFWKHWIQTKDGQCGSPLVSTRDGFIVGIHSASNFTNTNNYFTSVPKNFMELLTNQEAQQWVSGWRLNADSVLWGGHKVFMVKPEEPFQPVGEATQL [K230G],0.0879,0.0955,0.0753,0.0608,0.0532,0.0483,0.0473,0.131,0.0867,0.0549,0.0583,0.0485,0.0911,0.0041,0.0558,,,,
MGESLFKGPRDYNPISSSICHLTNESDGHTTSLYGIGFGPFIITNKHLFRRNNGTLVVQSLHGVFKVKDTTTLQQHLVDGRDMIIIRMPKDFPPFPQKLKFREPQREERICLVTTNFQTKSMSSMVSDTSCTFPSGDGIFWKHWIQTKDGQCGSPLVSTRDGFIVGIHSASNFTNTNNYFTSVPKNFMELLTNQEAQQWVSGWRLNADSVLWGGHKVFMVKPEEPFQPVKGATQL [E231G],0.0487,0.0489,0.0651,0.0646,0.0618,0.0839,0.0614,0.102,,0.0538,0.0471,0.043,0.0994,0.0638,0.0484,0.0647,0.0628,0.0665,0.0593
MGESLFKGPRDYNPISSSICHLTNESDGHTTSLYGIGFGPFIITNKHLFRRNNGTLVVQSLHGVFKVKDTTTLQQHLVDGRDMIIIRMPKDFPPFPQKLKFREPQREERICLVTTNFQTKSMSSMVSDTSCTFPSGDGIFWKHWIQTKDGQCGSPLVSTRDGFIVGIHSASNFTNTNNYFTSVPKNFMELLTNQEAQQWVSGWRLNADSVLWGGHKVFMVKPEEPFQPVKMATQL [E231M],0.059,0.0695,,0.0499,0.0603,0.0579,,0.119,0.0568,0.0587,0.0639,0.0609,0.0728,,,0.0787,,0.0482,0.0737
MGESLFKGPRDYNPISSSICHLTNESDGHTTSLYGIGFGPFIITNKHLFRRNNGTLVVQSLHGVFKVKDTTTLQQHLVDGRDMIIIRMPKDFPPFPQKLKFREPQREERICLVTTNFQTKSMSSMVSDTSCTFPSGDGIFWKHWIQTKDGQCGSPLVSTRDGFIVGIHSASNFTNTNNYFTSVPKNFMELLTNQEAQQWVSGWRLNADSVLWGGHKVFMVKPEEPFQPVKEPTQL [A232P],0.0592,0.062,0.0552,,,0.0546,,,0.0727,,0.062,,,0.0512,,0.0481,,0.0634,
MGESLFKGPRDYNPISSSICHLTNESDGHTTSLYGIGFGPFIITNKHLFRRNNGTLVVQSLHGVFKVKDTTTLQQHLVDGRDMIIIRMPKDFPPFPQKLKFREPQREERICLVTTNFQTKSMSSMVSDTSCTFPSGDGIFWKHWIQTKDGQCGSPLVSTRDGFIVGIHSASNFTNTNNYFTSVPKNFMELLTNQEAQQWVSGWRLNADSVLWGGHKVFMVKPEEPFQPVKEATQM [L235M],0.0634,0.0706,0.0577,0.0699,0.0461,,0.0671,,,0.065,0.0397,0.0537,0.0894,,0.0596,0.092,0.0678,0.0432,0.0571
MGPSLFKGPRDYNPISSSICHLTNESDGHTTSLYGIGFGPFIITNKHLFRRNNGTLVVQSLHGVFKVKDTTTLQQHLVDGRDMIIIRMPKDFPPFPQKLKFREPQREERICLVTTNFQTKSMSSMVSDTSCTFPSGDGIFWKHWIQTKDGQCGSPLVSTRDGFIVGIHSASNFTNTNNYFTSVPKNFMELLTNQEAQQWVSGWRLNADSVLWGGHKVFMVKPEEPFQPVKEATQL [E3P],,0.0608,,0.0581,0.0503,0.0568,,0.122,,0.0622,0.0627,0.0713,0.078,,,,0.0652,0.052,
MGESLFAGPRDYNPISSSICHLTNESDGHTTSLYGIGFGPFIITNKHLFRRNNGTLVVQSLHGVFKVKDTTTLQQHLVDGRDMIIIRMPKDFPPFPQKLKFREPQREERICLVTTNFQTKSMSSMVSDTSCTFPSGDGIFWKHWIQTKDGQCGSPLVSTRDGFIVGIHSASNFTNTNNYFTSVPKNFMELLTNQEAQQWVSGWRLNADSVLWGGHKVFMVKPEEPFQPVKEATQL [K7A],,0.0697,0.0695,0.0645,,0.106,,,0.0511,0.0545,0.068,,,,0.0751,,,0.0517,0.0657
MGESLFKGPIDYNPISSSICHLTNESDGHTTSLYGIGFGPFIITNKHLFRRNNGTLVVQSLHGVFKVKDTTTLQQHLVDGRDMIIIRMPKDFPPFPQKLKFREPQREERICLVTTNFQTKSMSSMVSDTSCTFPSGDGIFWKHWIQTKDGQCGSPLVSTRDGFIVGIHSASNFTNTNNYFTSVPKNFMELLTNQEAQQWVSGWRLNADSVLWGGHKVFMVKPEEPFQPVKEATQL [R10I],,0.0674,,0.0709,,,0.0509,0.116,,,0.0588,,,,0.0586,,0.111,0.0692,0.0682
MGESLFKGPRIYNPISSSICHLTNESDGHTTSLYGIGFGPFIITNKHLFRRNNGTLVVQSLHGVFKVKDTTTLQQHLVDGRDMIIIRMPKDFPPFPQKLKFREPQREERICLVTTNFQTKSMSSMVSDTSCTFPSGDGIFWKHWIQTKDGQCGSPLVSTRDGFIVGIHSASNFTNTNNYFTSVPKNFMELLTNQEAQQWVSGWRLNADSVLWGGHKVFMVKPEEPFQPVKEATQL [D11I],,0.0686,0.0549,,,,0.0656,,0.0676,0.0522,0.0698,0.0637,0.0698,,0.0601,,0.0786,0.0561,0.0661
MGESLFKGPRDYNPISSYICHLTNESDGHTTSLYGIGFGPFIITNKHLFRRNNGTLVVQSLHGVFKVKDTTTLQQHLVDGRDMIIIRMPKDFPPFPQKLKFREPQREERICLVTTNFQTKSMSSMVSDTSCTFPSGDGIFWKHWIQTKDGQCGSPLVSTRDGFIVGIHSASNFTNTNNYFTSVPKNFMELLTNQEAQQWVSGWRLNADSVLWGGHKVFMVKPEEPFQPVKEATQL [S18Y],,0.0629,0.0405,0.0519,,,,,0.0668,0.0565,0.0587,0.0641,0.0713,,,0.0449,0.0558,0.0636,0.0778
